Experimental data: the supplement of paper PMC3334620
Whole data set: some 33,000 sequences, median “E-score (-0.5 to 0.5)” near -0.054, cut for the highest 2% near 0.35. The list shows a part of the results.

Target: T1, Stb5 (UniProt P38699)
T1 sequence: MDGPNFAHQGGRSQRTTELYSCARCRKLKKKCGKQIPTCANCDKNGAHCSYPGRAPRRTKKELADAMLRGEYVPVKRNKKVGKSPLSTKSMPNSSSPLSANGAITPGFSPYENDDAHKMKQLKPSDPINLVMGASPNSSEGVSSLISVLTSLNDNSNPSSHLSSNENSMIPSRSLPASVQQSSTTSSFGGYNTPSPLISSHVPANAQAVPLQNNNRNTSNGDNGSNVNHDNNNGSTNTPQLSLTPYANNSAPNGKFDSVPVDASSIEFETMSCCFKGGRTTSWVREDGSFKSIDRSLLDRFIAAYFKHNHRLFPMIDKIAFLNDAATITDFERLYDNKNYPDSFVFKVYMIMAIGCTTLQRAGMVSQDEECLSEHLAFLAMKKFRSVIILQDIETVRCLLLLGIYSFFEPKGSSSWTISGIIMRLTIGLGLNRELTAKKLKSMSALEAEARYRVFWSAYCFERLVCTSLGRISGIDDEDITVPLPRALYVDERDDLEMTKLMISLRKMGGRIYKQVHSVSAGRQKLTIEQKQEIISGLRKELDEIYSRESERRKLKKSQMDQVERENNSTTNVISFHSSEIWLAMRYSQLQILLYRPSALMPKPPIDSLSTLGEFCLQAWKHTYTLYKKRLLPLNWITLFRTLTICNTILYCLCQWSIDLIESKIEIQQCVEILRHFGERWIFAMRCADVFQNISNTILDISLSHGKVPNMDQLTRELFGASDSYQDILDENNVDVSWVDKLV
Experiment: PBM E-score (8-mer binding enrichment) (E-score (-0.5 to 0.5)); higher = stronger / more preferred TF binding; most listed sequences are background and not binding sites
Conditions: protein concentration: 200 nM; construct: GST-full length
Method: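 Universal 'all 10-mer' protein binding microarrays (Agilent AMADID 015681) probed with GST-tagged S. cerevisiae TFs (full-length or DBD) made by in vitro transcription/translation (PURExpress), about 100-200 nM. Bound TF was detected with fluorescent anti-GST. Each ungapped 8-mer (which stands for itself and its reverse complement) is scored by the PBM enrichment score (E-score), a modified Wilcoxon-Mann-Whitney statistic from -0.5 to +0.5, computed with the Universal PBM Analysis Suite. Scale: above 0.35 generally sequence-specific binding.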

Sequence | PBM E-score
ACGTGGAG | -0.169
CCGGCTAC | 0.154
AGACTGTC | -0.0493
CCCACGAG | -0.133
CTTGCCTC | -0.0773
ATGCCCTA | -0.0358
CCTCTTCG | -0.0468
CCAAATAG | -0.236
CTGAAAAC | -0.0564
CATAAATA | 0.0322
CGGTGTAC | 0.285
GAGGTATC | -0.0164
TCGAACGA | -0.164
ATACTGAC | -0.153
GCATTGCA | -0.124
AAGGGCAC | -0.257
CGCGGCTA | 0.3
CGGAGTCC | 0.199
ACGCAACC | -0.0595
ACTCATAA | -0.0403
AGCTCATG | -0.278
CTCTAAAG | -0.162
CTGACGCC | 0.159
CTGCCCCC | -0.0747
AAAGGTAG | -0.25

Sequence | PBM E-score
ACCACCTA | -0.134
ATCCCTAG | -0.153
CACTGAAC | -0.169
ACGCGGTC | 0.216
CGTTGGCA | 0.0887
AACATCGT | 0.0798
CTAGAGAC | -0.125
CTCGGAAG | -0.0763
GACCTCTC | -0.126
AACTACCG | 0.31
GATAAACC | 0.169
GGGGTTGA | 0.133
ACATGTGC | -0.0551
CGGGTCGA | 0.116
CCTACCGA | 0.0132
AAAGGGTG | -0.115
ACGGATTG | 0.099
GATGCTGC | -0.0585
ACCCCTCT | 0.0376
CGGCTTTC | 0.061
AGCTAGAG | -0.205
ACTCCTTC | -0.202
ACCGTGTG | 0.134
GAGGTCTA | -0.245
CGCAATCC | 0.0687

Sequence | PBM E-score
AATTACTC | -0.0204
GTTAGGCA | -0.213
ACTGTCAG | -0.155
ACGGTCTC | 0.243
AGTACGCC | 0.009
GGGTAGTA | -0.0884
CACATCAG | -0.0846
ATTAGTCG | 0.0412
ACTCCCTA | -0.275
CGGCTTAG | 0.00985
CCTAACAC | 0.107
AAACTTCT | 0.141
GGCAAGCC | -0.0595
AAGGACAA | -0.0259
AATTTGTG | -0.00811
CTGGGACA | -0.232
AACGCACT | 0.0122
CCGGCTAA | 0.191
GTAGCGCA | 0.0352
GCGTATTA | -0.0551
TAGCGCAA | -0.0698
GCGGCAGC | 0.16
TAACTATA | -0.017
GCCCAGGA | -0.199
AATCGAAT | 0.0626

Sequence | PBM E-score
GACTAGCA | -0.14
ACGTAGGA | -0.111
CTTTAGAA | -0.0154
ACGCTGTA | -0.163
CTATAATC | 0.019
CTGCCGCA | 0.0632
AATGCCGA | 0.419
CACCCGAA | 0.0469
GTCGTCGA | -0.0575
AGCGCCGC | 0.41
GGCGAAAA | 0.0996
AGCAGAGA | -0.288
ACGAAATG | -0.178
GAAGTCCA | -0.0947
GCATTTAA | 0.18
CCATCGCG | 0.195
CCGAGCAC | 0.00436
AGAAGGCA | -0.169
ACTAGAGG | 0.0762
ATCACTCA | -0.212
GGGAGCGA | -0.286
GATCTAAA | 0.159
GATACTCA | 0.158
GACTCGCC | -0.131
CCGAGTGA | 0.1

Sequence | PBM E-score
GGGATGCA | -0.232
ACAATCTA | -0.243
GCTTAGCC | 0.127
CATCTGGG | -0.279
CGCACACC | 0.0245
ACGGCTTA | -0.0299
ATCTACCG | 0.122
AACTAGAG | -0.163
TGACTGAA | -0.169
AGACACGA | -0.175
AATTACAA | -0.176
AGATTTAT | 0.169
GGGGACGA | -0.0481
AACATAAA | -0.0956
ACAACACG | -0.192
TTAGGCAA | -0.13
CCATACGG | 0.124
CATATCAG | -0.0257
GATTGCGA | 0.0469
CGGTTGAC | 0.0802
AGATTCTG | -0.218
CGTAAAGA | -0.0109
CTGCTAGA | 0.0321
CAGACCCA | -0.22
GCGTCCTA | -0.159

Sequence | PBM E-score
CCCGGCCG | 0.273
GGGTACCC | -0.0555
CAAAGCCA | -0.19
CATACATC | -0.0389
AATACTGG | -0.142
CCCAGCAC | -0.126
CGCGGTGC | 0.378
ATCCACAT | -0.136
AGGGGAGG | -0.0499
AAACAGTG | -0.162
CAACTTCG | -0.162
AATATTTG | -0.0964
AGCGTCCA | -0.15
CTTCCTGA | -0.258
CGATTGAC | -0.0756
ATACGGGA | 0.228
ACCCGACA | 0.233
CCTATATA | 0.0669
ACGCCAGA | -0.169
CAAGCTAA | -0.204
AGACTCCG | 0.304
GATGCCAC | -0.155
ACCTTAAC | -0.0196
AGTTTCGC | -0.147
GGTGTATA | 0.171

Sequence | PBM E-score
AACCGTCC | -0.0366
ACCAGCCC | 0.211
ATTAAGAG | 0.123
ATCCGACA | 0.283
CACCACAC | 0.0458
CGTGACAG | -0.0301
CCGAAGCA | 0.07
CAACATTG | 0.0608
AGCGCGGG | 0.111
CATGTAGA | 0.00676
ATCTGCAC | -0.0817
GCTGGATA | -0.235
AGACGATG | 0.0118
GACTTTCC | -0.0068
GAGGAAAC | 0.0678
CAGTGGGG | -0.291
ACCAGGCC | -0.135
TAAATCGA | -0.267
CCCGCTAA | 0.261
AACAGATA | -0.0868
ACCTATAA | 0.0419
ATCGAGTC | -0.158
CTGCTGTC | -0.0444
CACTAGTA | -0.159
GACTTACA | 0.0197

Sequence | PBM E-score
GCGGTGCC | 0.387
GATGCCTA | -0.219
GCTGCGTA | -0.288
CAGGTGTA | -0.204
GCGCGGAA | 0.165
GAAGGGCC | 0.115
GTCCAATA | 0.0373
GAGACGCA | 0.0862
CAGTGAAC | -0.293
GTAACCAA | -0.0187
ACTTTCAA | 0.0549
GATAAGAC | -0.0658
GACGTAAA | 0.102
GCCTGCGC | -0.144
ACACCGGA | 0.402
CATGCGGG | 0.108
ATGGCTAC | -0.327
AGGCGGGA | 0.234
CAAGCGTC | -0.132
GAGACATC | -0.154
GACTACTA | -0.108
CTATAAGC | 0.128
AAGAAAAT | -0.019
CAGGTACG | -0.0473
CGCAATCA | 0.114

Sequence | PBM E-score
AAGCGATT | -0.099
CCATAGTC | -0.0501
ACAATGGT | -0.107
GAATGGTC | -0.0217
ACCTGTAC | 0.0153
ATTCCAGG | -0.12
AACCCCAA | -0.0237
GATAAGTA | 0.0753
CCCGTCCA | 0.207
AGACCTCG | -0.117
GATCCGCA | 0.0791
CCCGCATC | 0.206
CCTGACAA | -0.238
CGAACGAC | -0.0463
CCAGGGTC | -0.133
AGGCTGTC | -0.0851
TACGGCAA | 0.137
AGTACCTG | -0.223
CCATTCTA | -0.284
